According to PMC4336329 (PLoS ONE, 2015):
Out of some 310,000 compounds screened, about 2,200 (0.71%) showed an effect of 50% or more. Effects have a minus sign here. The list shows a part of the results.

molecular target: human ether-à-go-go-related gene (hERG) potassium channel (human, UniProt Q12809); assay: primary screen, population patch clamp on CHO cells stably expressing hERG
Sequence (Q12809 whole entry, looked up): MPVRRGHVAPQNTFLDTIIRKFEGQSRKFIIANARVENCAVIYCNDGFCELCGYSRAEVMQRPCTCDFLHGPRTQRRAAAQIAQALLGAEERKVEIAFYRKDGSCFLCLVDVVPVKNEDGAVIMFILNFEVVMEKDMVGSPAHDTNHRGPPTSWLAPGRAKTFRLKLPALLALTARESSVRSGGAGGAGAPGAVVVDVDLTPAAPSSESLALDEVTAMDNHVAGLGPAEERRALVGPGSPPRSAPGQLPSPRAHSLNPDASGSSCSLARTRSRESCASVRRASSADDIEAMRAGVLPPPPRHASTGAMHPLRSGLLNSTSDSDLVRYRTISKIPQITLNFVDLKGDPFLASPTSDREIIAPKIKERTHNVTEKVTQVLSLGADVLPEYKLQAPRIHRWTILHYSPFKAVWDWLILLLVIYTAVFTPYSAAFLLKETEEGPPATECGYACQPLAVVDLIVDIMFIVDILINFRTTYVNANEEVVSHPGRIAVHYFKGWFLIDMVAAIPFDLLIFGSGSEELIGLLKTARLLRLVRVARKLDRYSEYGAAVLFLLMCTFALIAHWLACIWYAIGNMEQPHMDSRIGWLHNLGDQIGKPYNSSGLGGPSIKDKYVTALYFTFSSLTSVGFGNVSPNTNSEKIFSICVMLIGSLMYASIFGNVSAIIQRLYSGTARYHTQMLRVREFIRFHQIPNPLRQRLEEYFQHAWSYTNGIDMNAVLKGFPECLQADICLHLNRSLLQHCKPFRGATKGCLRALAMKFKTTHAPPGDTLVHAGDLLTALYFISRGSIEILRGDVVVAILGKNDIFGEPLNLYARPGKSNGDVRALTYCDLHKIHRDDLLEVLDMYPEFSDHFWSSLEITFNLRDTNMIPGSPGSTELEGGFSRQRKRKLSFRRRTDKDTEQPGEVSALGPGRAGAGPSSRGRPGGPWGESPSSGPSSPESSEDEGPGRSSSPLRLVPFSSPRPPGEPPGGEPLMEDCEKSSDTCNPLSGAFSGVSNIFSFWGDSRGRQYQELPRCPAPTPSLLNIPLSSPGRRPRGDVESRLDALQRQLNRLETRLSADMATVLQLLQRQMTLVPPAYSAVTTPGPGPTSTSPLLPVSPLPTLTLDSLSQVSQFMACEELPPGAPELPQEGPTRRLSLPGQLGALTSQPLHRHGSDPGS

SMILES | hERG current change (%, negative = inhibition) at 1uM [%]
CCCc1ccc(-c2c(C)sc(N)c2C#N)cc1 | 16.9
CC(C)C(=O)NC(Nc1ccccc1F)C(Cl)(Cl)Cl (centres unmarked) | 4.85
Cc1ccc2c(c1)C(c1ccc(N3CCOCC3)cc1)=NNC(c1cccs1)=N2 | 5.76
CCCN1CCc2c(sc(NC(=O)CCS(=O)(=O)c3ccccc3)c2C(N)=O)C1.Cl | -6.02
Cc1ccc(NC(=O)CC2S/C(=N/c3nccs3)N(C)C2=O)cc1C (centres unmarked) | 9.2
CN(C)CC/C=C1\c2ccccc2Sc2cc(F)c(Cl)cc21.Cl | 6.95
CCc1nnc(NC(=O)CSc2ccc(Cl)cc2)s1 | 1.94
COc1ccc(-c2noc(-c3ccc(Br)o3)n2)cc1OC | 10.3
COc1cccc(-n2c(C)nc3c(cnn3-c3ccc(C)cc3)c2=O)c1 | 5.26
Cc1ccc(S(=O)(=O)Nc2ccc(C(=O)N3CCCC3)cc2)c(C)c1NS(C)(=O)=O | 13.9
COCCCNC(=O)CN(c1ccc(F)cc1)S(=O)(=O)c1ccc2c(c1)OCCO2 | 8.78
Nc1c(C(=O)NCc2ccc(Cl)cc2)sc2nc3c(c(C(F)(F)F)c12)CCC3 | -7.98
Cc1ccc(CC2C(=O)N(c3nc(C)cc(C)n3)C(=O)C2C)cc1 (centres unmarked) | -4.39
CCOC(=O)c1ccc(Cl)c(NC(=O)c2cccnc2)c1 | 1.53
CCC1Cc2c(nc(N)c3c(N)nc(N4CCOCC4)c(C#N)c23)O1 (centres unmarked) | 2.66
Cc1cc(OCC(=O)NCc2cccnc2)c2c(C)c(C)c(=O)oc2c1 | -1.54
CCOC(=O)c1c(/N=C/c2ccc(O)cc2O)sc2c1CCC2 | 8.96
O=C(COC(=O)c1cccc2c1C(=O)c1ccccc1C2=O)NC1CCCCC1 | 7.56
Cc1ccc(NC(=O)CSc2nnc(-c3ccco3)n2N)cc1F | 12.5
COc1ccc(CCNC(C)C(=O)Nc2ccc(S(N)(=O)=O)cc2)cc1 (centres unmarked) | 5.66
CC(Sc1nc(N2CCOCC2)nc(N2CCOCC2)n1)C(=O)Nc1ccccc1 (centres unmarked) | 13.7
COCCCN1C(=O)C(=O)/C(=C(/O)c2ccc(S(=O)(=O)N3CCOCC3)cc2)C1c1ccc(C(C)C)cc1 (centres unmarked) | 7.71
Cc1ccsc1/C=C(\C#N)C(=O)Nc1c(C)n(C)n(-c2ccccc2)c1=O | 2.8

SMILES | hERG current change (%, negative = inhibition) at 1uM [%]
O=C(CN1C(=O)S/C(=C\c2ccc(Cl)cc2)C1=O)NCCCn1ccnc1 | -28.7
CCCCn1c(=N)n(CC(O)COc2ccc(C)cc2)c2ccccc21.Cl (centres unmarked) | -77
COc1cccc(NC(=O)CN(C)C(=O)c2ccc(-c3ccccc3Cl)o2)c1 | -5.38
Clc1ccc(-c2nnnn2-c2ccc(Cl)c(Cl)c2)cc1Cl | 6.13
Nn1c(Cc2cccc3ccccc23)nnc1SCn1nnc2ccccc2c1=O | 10.9
COCC(C)N1C(=O)Cc2c1nc(N)c1c(N)nc(N3CCN(c4ccccc4F)CC3)c(C#N)c21 (centres unmarked) | 11.9
O=C(CN(C(=O)CNC(=O)c1cccs1)c1ccccc1F)NC1CCCC1 | 12.5
O=C(CC1SC(N2CCCC2)=NC1=O)Nc1ccc(C(=O)N2CCCC(C(F)(F)F)C2)cc1 (centres unmarked) | 18.7
Cc1cc(C(F)F)n2ncc(C(=O)NCCc3ccc(Cl)cc3)c2n1 | 0.647
CCc1cccc(OCCn2nc(C(=O)O)c3ccccc3c2=O)c1 | 14.6
CNc1nnc(-c2cccc(N(C)C)c2)s1 | 5
CCCC/C(O)=C/c1nc2ccccc2[nH]c1=O | 1.79
Cc1nn(-c2ccc(F)cc2)c(Cl)c1/C=C/C(=O)OCC(=O)Nc1ccc(F)cc1F | 11.9
Clc1ccc(/C=N/N2CCCCC2)cc1 | 7.49
CCOc1ccc(C(=O)Nc2nnc(C(C)C)s2)cc1OCC | 9.04
O=C(CSc1nnc(CNC(=O)c2ccccc2)o1)Nc1ccc2c(c1)OCO2 | 3.31
C/C(=N\NC(=O)c1ccc(N(C)C)cc1)c1ccc(C)cc1C | 9.79
CCOC(=O)C1CCCN(Cc2nc(N)nc(Nc3ccc(Cl)cc3)n2)C1 (centres unmarked) | -71.6
O=c1c(-c2ccc(O)cc2)coc2cc(O)ccc12 | 15.8
O=C(Cc1cccs1)NCCc1cn2ccccc2n1 | 3.21
CN1CCC2(CC1)NC(=O)NC2=O | 5.58
Cc1nn(C)c(C(=O)NNC(=S)NCc2ccco2)c1Cl | 2.48
COc1ccccc1CCNC(=O)c1nccnc1C(=O)O | 12.3

SMILES | hERG current change (%, negative = inhibition) at 1uM [%]
Cc1cccc(C(=O)NCc2ccc(S(N)(=O)=O)cc2)c1[N+](=O)[O-] | 6
Cc1ccc(C)c(S(=O)(=O)N2CCN(C(=O)CSc3ccccc3F)CC2)c1 | 8.13
COc1cc(C=C2C(=O)OC(c3ccccc3)OC2=O)cc(Br)c1O (centres unmarked) | 9.32
Cc1cccc(C)c1Nc1nnc(SCC(=O)c2ccc(Br)s2)s1 | 12.4
COC(=O)CC1c2cc(OC)c(OC)cc2CC(=O)c2cc(OC)c(OC)cc21 (centres unmarked) | 14.7
COc1ccc(OC)c(-n2c(-c3cc(-c4ccc(F)cc4)n[nH]3)n[nH]c2=S)c1 | 12
COC(=O)C1=C(c2ccc(F)cc2F)C[C@@H]2CC[C@H]1N2C(=O)N1CCC(C)CC1 | 1.55
CC1CC(=S)Nc2ccccc2S1 (centres unmarked) | 6.33
Nc1nonc1-n1nnc(C(=O)O)c1-c1cccs1 | 17.3
CCCC(C)NC(=O)COC(=O)c1cccc(NS(C)(=O)=O)c1 (centres unmarked) | 9.6
Cc1cc(C)nc(N/N=C/c2ccccc2OCc2cccc(Br)c2)n1 | 4.01
Cc1ccc(-c2cc(N)n(Cc3ccc(Cl)cc3)n2)cc1 | 1.54
Cn1cc(C(=O)Nc2cccc(F)c2)cn1 | 14.7
COc1cc(C(=S)N2CCOCC2)cc(OC)c1OC(=O)Cc1ccccc1 | 7.76
Nc1ncc(N=Nc2cc(C(=O)O)ccc2Cl)s1 | 7.03
O=C(O)c1cc2ccccc2oc1=O | 11.8
COc1ccc(CC(=O)O/N=C(\N)c2ccccn2)cc1 | 12
O=C(NCC1CC1)C1CCCN(S(=O)(=O)c2ccc(-n3cnnn3)cc2)C1 (centres unmarked) | -14.5
CC(=O)Nc1cc(NC(C)=O)c(N=Nc2ccccc2)cc1C | 12.2
CC1Cc2ccccc2N1CC(=O)NC(=O)NC1CCCCC1 (centres unmarked) | 3.07
Cc1ccc(NC(=O)CSC2=C(C#N)C(c3ccc4c(c3)OCO4)CC(=O)N2)cc1C (centres unmarked) | 9.05
CCCCn1c(N)c(N(CC(C)C)C(=O)C2CC(=O)N(c3ccc4c(c3)OCCO4)C2)c(=O)[nH]c1=O (centres unmarked) | 8.42
CCCCCN(C(=O)CCC(=O)OCc1ccccc1Cl)c1c(N)n(CCCC)c(=O)[nH]c1=O | 5.11

SMILES | hERG current change (%, negative = inhibition) at 1uM [%]
O=C(COC(=O)c1c[nH]c2ccccc12)NC1CCCC1 | 10
COc1cc(/C=N/NC(=O)CCC(=O)NC2CCCCC2)ccc1C | 4.97
Cc1ccc(NC(=O)CN(C)C(=O)COC(=O)C2=COCCO2)cc1 | 13.3
NCCCC[C@H]1CNC(=O)C(=O)N1CCCCC1CCCCC1 | 15.3
CC(C)N1CCN(Cc2cccn2-c2nccs2)CC1CCO (centres unmarked) | 11.5
Cc1ccc(NC(=O)CSc2ccc(-c3ccco3)nn2)c(C)c1 | -8.49
O=C(Nc1cccc(Cl)c1)c1c(O)c2c(n(Cc3ccco3)c1=O)CCCC2 | 7.55
CCc1ccccc1NC(=S)N(Cc1cccs1)C1CCCC1 | 12
Cc1ccc(-n2nc3c(N4CCC(C(=O)N5CCC(C(N)=O)CC5)CC4)nnc(C)c3c2C)cc1 | 11.9
O=C(Cc1ccccc1)NCC(=O)N1CCc2ccccc2C1 | 8.82
O=C(COC(=O)/C=C/c1ccccc1Cl)NCc1ccccc1 | -8.14
O=C(NNC(=O)c1cccnc1SCc1cccc([N+](=O)[O-])c1)c1cccnc1 | 9.72
CCOC(=O)N1CCN(C(=O)c2ccc3c(=O)n(CCC4=CCCCC4)c(=S)[nH]c3c2)CC1 | 14.1
COc1ccccc1OCC(=O)Nc1ccc(Cl)cc1 | 9.34
C=CCn1c(C)cc(C(=O)COC(=O)/C=C/c2ccc(OC)cc2)c1C | 11.1
CCc1cc[n+](CC(=O)Nc2ccc(Cl)cc2Cl)cc1.[Cl-] | 8.96
Cc1c(OCc2ccccc2)c(=O)ccn1Cc1ccccc1 | -3.2
CN(CC(=O)Nc1ccc(F)cc1[N+](=O)[O-])Cc1ccccc1 | 8.08
CN(CC(=O)Nc1cccc(F)c1)C(=O)/C=C/c1ccc2ccccc2n1 | 10.3
CCCNS(=O)(=O)c1ccc(OCC(=O)NCC2CCCO2)cc1 (centres unmarked) | 20.1
